# ± gives the standard deviation of the averaged measurements. The list shows a part of the results.
# Test system: PfAP2-LT AP2 domain (GST-tagged)
# Assay: gcPBM binding intensity (ln(normalized median fluorescence intensity)); higher = stronger DNA binding
# In short: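 GST-fused DNA-binding domains of P. falciparum, expressed in E. coli, were applied at about 25 μg on average for 1 h to an Agilent 4 × 180k array of primer-extended double-stranded 36-bp intergenic genomic probes and negative controls. Binding intensity is the highest Masliner-normalised natural-log median intensity across replicate spots of either probe orientation, measured with Alexa488 anti-GST antibody and a 488 nm scan.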
row,Sequence,gcPBM binding intensity (ln)
1,ATATATATATATATATGTACTTATTTGAATACTAAA [XGTACX_site2330],9.27 ± 0.16
2,AAGGGTTGCCTGTGTAGTACATATATATATATATAT [XGTACX_site8555],9.61 ± 0.37
3,TGACTATGTATATTTAGTACATAAAATCAATAATAT [XGTACX_site4082],8.65 ± 0.45
4,AAATTATATTATTGAACACACGTTTGGTAATGTTTT [CACACA_site5469],8.87 ± 0.35
5,TCATTCATAAAAATAACACACAAAAAAAAAAAAAAA [CACACA_site1800],8.64 ± 0.42
6,GTAAACAAAATATTTTGTACATATTTTATATTATTT [XGTACX_site7837],8.69 ± 0.41
7,AGGGAAAAAAAAAAAGTGCATTTGTATTAAATGAAT,8.55 ± 0.63
8,AAATATAAGAAAAAGGTGCTTTTTTTTTTTTTTTTT [GTGCAC_site9700],8.69 ± 0.3
9,ATAATGATATATAGTACACACAAAAATGGAAGTAAA [CACACA_site7541],9.23 ± 0.46
10,GGACATTTTTATAAGGTGCACGGTTTTGATATTACT [GTGCAC_site9892],8.98 ± 0.39
11,AACCACATACATATAACACACATATACAATATATAT [CACACA_site8607],9.29 ± 0.39
12,CATTAAATATATAAATGTACAAATATATTTTTCAAA [XGTACX_site4429],8.42 ± 0.49
13,TTGTTCATATTTTTTATTGTGTTAATATTTATAAAA [GTGCAC_negctrl_site423],8.47 ± 0.38
14,TTAATGTAGAGAAAATGTACATTTTATTAAAACAAT [XGTACX_site6376],8.76 ± 0.47
15,CCTATTTATAAATACACACACATATATAAATAAATA [CACACA_site5629],9.23 ± 0.25
16,AAAAAACTATTATGTGCATGCACAAGTCAGGTAAAT [TGCATGCA_site791],9.29 ± 0.32
17,TATTTATAGATATATACACACATATTTATATTTATA [CACACA_site6441],8.81 ± 0.52
18,AAAAAGAAATCCAATACACACCTTCAAAATGGGTAT [CACACA_site4978],8.89 ± 0.37
19,TTTTTTATTTTTGCGTGTACATAATAATGAATCTTC [XGTACX_site8077],8.72 ± 0.51
20,GAAATTTCCCATATTACACACATACTATGATATATA [CACACA_site5987],9.1 ± 0.35
21,TTTTAAATATATGTGCTATTATATTAAGAGATGTAA [GTGCAC_negctrl_site560],8.19 ± 0.38
22,ATCTATAAATTTCCACGTACATATATATATATATAT [XGTACX_site4502],9.37 ± 0.13

row,Sequence,gcPBM binding intensity (ln)
1,CCTCTTTTTATTCTCACACACGTTTATATATAAAGT [CACACA_site4992],9.29 ± 0.54
2,TTATAAATGTATTTATGTACATATAAATATATATAA [XGTACX_site2970],8.44 ± 0.45
3,AAAAGAAAATAAGAAACACACAAAAATATATAAAAA [CACACA_site3697],8.96 ± 0.69
4,TTCTTTGCTTTTCAAACACACAAAAGTTATTATATT [CACACA_site521],8.79 ± 0.45
5,ATATAAATCAAAAACGCACACATAAATATTTATATA [CACACA_site2442],9.22 ± 0.3
6,ATAAAAGAATAAATAAAACACATATATATATATATA [XGTACX_negctrl_site31],9.76
7,TTTTTTTTTTTTTTGGTGCACATAGAAATTCTAAAA [GTGCAC_site9809],8.25 ± 0.28
8,CTTTCAAAATTATTTATAGTATCTCATATTTTAGTA [XGTACX_negctrl_site72],8.29 ± 0.45
9,TTTATTAATAAAAAGGTGCAATCAGGAAAAATTATC [GTGCAC_site9626],8.63 ± 0.47
10,ACACATATGTATATATGTACTTATATATATATATAT [XGTACX_site8632],9.29 ± 0.23
11,ATCCTTTATAAATAAGTGCATATAAAAAATAATATT [GTGCAC_site9759],8.56 ± 0.45
12,ATAATAAATTCTACGCGTACAAAACCATGAACATTA [XGTACX_site7505],8.86 ± 0.41
13,TTTTAGCTATTTTAATATAATGAAGCAAAAAATAAA [TGCATGCA_negctrl_site576],8.32 ± 0.4
14,ATGTATTACTTAAATATATGAAACATATTACTTTTA [CACACA_negctrl_site496],8.48 ± 0.38
15,AATTATATATAAAAAGTGCAAAACGATAATTCATCA,9 ± 0.44
16,AATATATATATATTATGTACACATAGAAATATATTA [XGTACX_site3874],8.85 ± 0.38
17,TCATATTCCAAAAAAAAAAAAAAAAAAAAAAAAATA [CACACA_negctrl_site1293],8.31 ± 0.46
18,CATACATACAAACACACACACATATAAATACATACA [CACACA_site4625],9.99 ± 0.31
19,ACATTGTTGGTGTTAGTGCATTGGTAAATATTATAT,8.89 ± 0.28
20,AAAAAAAAAAAAAAAACACACATATCTGTATTTATA [CACACA_site5760],8.85 ± 0.37
21,ATAGTATATCAAAATTTGTAAATCATTCTCAATAAA [CACACA_negctrl_site430],8.46 ± 0.58
22,AAAAAAAAAATTTTCGTGCACATAAGAAAATTTAAA [GTGCAC_site9788],8.46 ± 0.55

row,Sequence,gcPBM binding intensity (ln)
1,ACCTACATACATATGTGTACTTATTTGTATTCACTG [XGTACX_site7124],9.38 ± 0.46
2,ATAATATATGAAAAAACGATTTTTTCATTTTAAATA [XGTACX_negctrl_site146],8.38 ± 0.36
3,TTTATAAACAAATGAACACACAAACATATTTATATA [CACACA_site7478],8.86 ± 0.42
4,TATTTAAAGATATATACACACATTTGATATTATTAT [CACACA_site6509],8.85 ± 0.4
5,CACACGTAAAAGTATAATATAAAAAAGGTATACACT [CACACA_negctrl_site127],8.93 ± 0.45
6,TTTATAATAAAAAATACATGCAGTTATATATAATAA [TGCATGCA_site654],8.54 ± 0.49
7,ATATTGAAAATTTGAAGTACATCTAAATATATTATT [XGTACX_site7817],8.44 ± 0.45
8,ATCCGTGTCTGAAATACACACATGACAATGTGAATG [CACACA_site6556],8.97 ± 0.3
9,TATATATAAATAAACACACACAAATATAATAAAAAA [CACACA_site3526],9.39 ± 0.44
10,ATAATGTGTTTGGTATTCTTGATAGATAGTTTTGTG [CACACA_negctrl_site68],8.86 ± 0.41
11,CCTTCCTTGAATTTTACATGCAAAAAATTATAAAAC [TGCATGCA_site663],8.4 ± 0.31
12,TATATATTATATATTTGTACATATATATAAAAACTT [XGTACX_site449],8.53 ± 0.44
13,TTATTAAAATATACATTTGAAAGTAATCTTATTTAA [XGTACX_negctrl_site431],8.1 ± 0.38
14,TTTTTTCAATATTATATCCAAAAATATTTGTAAATA [TGCATGCA_negctrl_site596],8.05 ± 0.48
15,ATTTTTATTTTTTTTGTGCACATTTTCATTTTCTAT [GTGCAC_site9580],9.24 ± 0.51
16,TATAAAAAAATAATAAAATAATAAAATATATAAATA [TGCATGCA_negctrl_site394],8.55 ± 0.55
17,TTTTAAAAGGTAAAATGTACATATATAATATATACA [XGTACX_site1222],8.63 ± 0.45
18,ATTCTATTATCCTTTGCACACAAAATAAATGAAAAA [CACACA_site3030],8.8 ± 0.33
19,TAATACTTAGAGAAAAGTACGTATGAACTTATGTAA [XGTACX_site5504],8.59 ± 0.52
20,TTTTTTTTTTTTTTTTGTACTTATAAAATAACATGT [XGTACX_site134],8.41 ± 0.31
21,AAACATTTATGAAGGTGTACAAAAATGAATTAAAAA [XGTACX_site7035],8.79 ± 0.52
22,TATTTAAATACTGACGCATGCATAAGGAGTAATAGT [TGCATGCA_site465],9.23 ± 0.31

row,Sequence,gcPBM binding intensity (ln)
1,AGTCCTTACACATATATTAAATATGTGTATATATAT [XGTACX_negctrl_site336],9.16 ± 0.32
2,TTTTGTTTAGTGTATTGTACAATATATCTTTATTTT [XGTACX_site5163],8.92 ± 0.48
3,AAAAAAAAAAAAAAAAGTACATATATATATATAATT [XGTACX_site4437],8.72 ± 0.52
4,TATTAATACGGACACACACACACACTAGATAAAATA [CACACA_site4295],10.1 ± 0.11
5,TAATTAAATACATTAACACACACACTAATATATACA [CACACA_site8938],9.55 ± 0.17
6,TTCCTGTTAATTACAACACACAATTTTTATTTTATG [CACACA_site779],8.95 ± 0.54
7,TAAAAGTTTTTATACATACACACCTATAAATTAAGT [CACACA_site2446],8.72 ± 0.36
8,CTTTATTATAAGATTACACACATGTCTTATAATTTA [CACACA_site5715],9.02 ± 0.42
9,AAAATAAAAATAAAAGCACACATAAATATATATATA [CACACA_site8409],9.13 ± 0.38
10,TACCAAAAAAAAAAAAATAAAAATAAAAAAAAAAAT [CACACA_negctrl_site1714],8.58 ± 0.64
11,TAACTATTATAAAAATGTACAAATGAAAATATTTTT [XGTACX_site1438],8.54 ± 0.47
12,AAAATTAAAACCTACACACACATTTAAAAAAAAAAA [CACACA_site3068],9.29 ± 0.37
13,ATTTTTTTGGTAATTTGTACATAATATATACATAAT [XGTACX_site3742],8.79 ± 0.47
14,TATATTTATTTAAAAACATGCATTTTTTTTTTCCGT [TGCATGCA_site44],8.57 ± 0.49
15,TTTTTTTTTTTTACATGTACTTATTTTAAATATAAA [XGTACX_site805],8.71 ± 0.41
16,ATATATTTATAGACTTGTACATATATATACGATATA [XGTACX_site8890],8.83 ± 0.26
17,TATATTATAGGTTGTGTACACATATTATATAGTACT [CACACA_site4583],8.99 ± 0.41
18,AAGGCATGACTATCTGCACACATAAAAATAAGAAAT [CACACA_site8180],9.43 ± 0.45
19,TAAAAAAAAATATAATGTACGTATAAATATATATTA [XGTACX_site5085],8.62 ± 0.5
20,TAAACATAATAATATACACACATATATTGATATATA [CACACA_site2144],8.93 ± 0.35
21,AATTTTTTTTTTTTGTGTCCTCATAATTCTTCATTC [XGTACX_site5042],8.67 ± 0.58
22,ATCTTTCCTTTTGCATGTACATATGGAAATACTTTT [XGTACX_site6995],9.01 ± 0.4

# From the supplement of paper PMC11417369
